Source: PubChem BioAssay AID624418 (National Center for Advancing Translational Sciences (NCATS), 2012)
The campaign covered roughly 410,000 compounds. About 530 (0.13%) were called active. The shares of active, inactive and inconclusive entries below differ from those in the screen. Calls come from the whole dose curve; as a rule, active = well fitted inhibition curve with a large enough effect; inconclusive = small, poorly fitted or top-dose-only effect, or another doubt; inactive = no such curve, though single readings can be large or run the other way. Where the call is inconclusive, the potency comes from a doubtful curve fit.

Assay: qHTS of GLP-1 Receptor Inverse Agonists: Cytotox Screen
Settings: HEK293 cAMP-luciferase reporter cells, luminescence, 24 h; activity change, negative = inhibition: at 38.3 µM (top of the series) unless noted
Summary of the method: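 Cells in DMEM/10% Nu serum/1% pen-strep, 1536-well format. Pre-incubated 12 h, dosed with 23 nL compound, incubated a further 24 h. Luciferase detection, 12 min at room temp, luminescence.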
% is set by controls: 0 for no effect and ±100 for the full control effect; potency is the fitted concentration of half-maximal effect.

| Structure (SMILES) | activity change, negative = inhibition | Potency |
| --- | --- | --- |
| Cc1c(C(=O)N2CCN(Cc3ccccc3)CC2)oc2c1C(=O)CCC2 | inactive: 7.31% |  |
| O=C(O)c1ccc(Nc2ccc([N+](=O)[O-])c3nonc23)cc1 |  | inconclusive: 8.91 µM [inhibitor, partial curve, poor fit] |
| Cc1ccc(Cn2c(=N)n(CC(=O)c3ccccc3)c3ccccc32)cc1 |  | inconclusive: 7.94 µM [inhibitor, partial curve, poor fit] |
| OC(c1nc2ccccc2[nH]1)C(O)c1nc2ccccc2[nH]1 (stereo not given) | inactive: 3.72% |  |
| CCCN1CCN(CCCNC(=S)Nc2ccc3nc(N4CCN(CC)CC4)cc(C)c3c2)CC1 |  | inconclusive: 5.62 µM [inhibitor, partial curve] |
| Cc1cc(-c2ccccc2)nc(N/N=C/c2ccccc2)n1 |  | inconclusive: 10 µM [inhibitor, single point] |
| O=C(NCCCO)C(=O)NCC(c1ccc2c(c1)OCO2)N1CCOCC1 (stereo not given) | inactive: 2.56% |  |
| CC[N+]1(C)CCC(O)(c2ccc(OC)cc2)C(C(=O)c2ccc(OC)cc2)C1 (stereo not given) |  | inconclusive: 28.2 µM [inhibitor, single point] |
| CCCCCc1ccc(-c2nnc(N)s2)cc1 | inactive: 16.6% |  |
| COc1ccc(-c2ccc(/C=N/N3C(=O)C4C5C=CC(C6CC56)C4C3=O)o2)c([N+](=O)[O-])c1 (stereo not given) |  | inconclusive: 11.2 µM [inhibitor, single point] |
| COc1cccc(CNC(=O)c2oc3c(c2C)-c2nn(Cc4cccc(Cl)c4)cc2CC3)c1 | inactive: 11.5% |  |
| CCC(C)(C)NC(=O)C(C(C)C)N(CC1CCCO1)C(=O)CNS(=O)(=O)c1ccccc1 (stereo not given) |  | inconclusive: 1 µM [inhibitor, full curve, poor fit] |
| Cc1cc(C(F)(F)F)n2[nH]c(=O)c(N=Nc3ccccc3)c2n1 |  | inconclusive: 10 µM [inhibitor, single point] |
| COc1cc(C#Cc2c(-c3cncn3C)n(C)c3ccc(Br)cc23)cc(OC)c1 |  | inconclusive: 28.2 µM [inhibitor, single point] |
| CCc1ccc(NC2=NCC(c3ccccc3)S2)cc1 (stereo not given) |  | inconclusive: 28.2 µM [inhibitor, single point] |
| CCOc1ccc(NC(=S)NC(=O)c2ccco2)cc1 |  | inconclusive: 12.6 µM [inhibitor, single point] |
| Cc1ccc(S(=O)(=O)NCCc2csc(-c3ccc(Cl)cc3)n2)cc1 | inactive: -1.43% |  |
| CC(C)(C)OC(=O)N1CCN(c2ccc(NC(=O)Cn3nnc(-c4ccccc4)n3)cc2)CC1 |  | inconclusive: 22.4 µM [inhibitor, single point] |
| O=C(CSc1nc2ccccc2nc1Cc1ccc(Cl)cc1)N1CCCc2ccccc21 |  | inconclusive: 3.98 µM [inhibitor, full curve, poor fit] |
| CC(=O)N(C(C)=O)c1nc(-c2ccccc2)cn1/N=C/c1ccccc1 |  | inconclusive: 28.2 µM [inhibitor, single point] |
| O=C(/C=C/c1ccccc1)CCN1CCCCC1 |  | inconclusive: 10 µM [inhibitor, partial curve] |
| O=C(N/N=C/c1ccc([N+](=O)[O-])o1)c1ccccc1NS(=O)(=O)c1cccs1 |  | inconclusive: 12.6 µM [inhibitor, single point] |
| NC(=S)Nc1nc2ccccc2s1 |  | inconclusive: 3.98 µM [inhibitor, full curve, poor fit] |

| Structure (SMILES) | activity change, negative = inhibition | Potency |
| --- | --- | --- |
| Cc1sc2nc(C3CC3)nc(N3CCN(C(=O)c4ccc(Cl)cc4)CC3)c2c1C | inactive: 2.67% |  |
| CCN1CCC2(CC1)N=C(c1ccc(F)cc1)C(=S)N2C(=O)c1ccc(C)cc1 |  | inconclusive: 28.2 µM [inhibitor, single point] |
| C(=NNc1ccc2ccccc2n1)c1ccccn1 |  | inconclusive: 2.51 µM [inhibitor, full curve] |
| CC(C)NC(=S)N/N=C1\CCCc2ccccc21 |  | inconclusive: 8.91 µM [inhibitor, partial curve, poor fit] |
| CCN(CC)CC(=O)Nc1ccc(/C(C)=N/NC2=NCCN2)cc1 |  | inconclusive: 7.08 µM [inhibitor, partial curve, poor fit] |
| Cc1ccc(Oc2nc(CN3CCOCC3)nc3sc4c(c23)CCC(C)C4)cc1C (stereo not given) | inactive: 2.78% |  |
| NC(=S)N/N=C/c1ccccc1O |  | inconclusive: 0.501 µM [inhibitor, full curve, poor fit] |
| Cc1ccccc1OCC(=O)O/N=C(\N)Cc1cccs1 | inactive: 29.1% |  |
| Cn1nccc1C(=O)NC(=S)Nc1cc(Cl)cc(Cl)c1 | inactive: -7.05% |  |
| Cc1ccc(-c2cc(C(=O)Nc3nccs3)c3ccccc3n2)o1 | inactive: 27.7% |  |
| Fc1ccc(C(c2nnnn2Cc2cccs2)N2CCN(C3CCCCC3)CC2)cc1 (stereo not given) |  | inconclusive: 8.91 µM [inhibitor, partial curve, poor fit] |
| Cc1ccc(OCC(=O)Nc2cccnc2Cl)cc1C |  | inconclusive: 2.51 µM [inhibitor, partial curve, poor fit] |
| COc1ccc(Nc2nnc(SCc3cn4c(C)cccc4n3)s2)cc1 |  | inconclusive: 6.31 µM [inhibitor, partial curve, poor fit] |
| COC(=O)CSc1nnc(-c2sc3cc(OC)ccc3c2Cl)n1C | inactive: -4.36% |  |
| CCC1=NN(C(=O)c2ccc([N+](=O)[O-])cc2)C(O)(c2ccccc2)C1 (stereo not given) |  | inconclusive: 8.91 µM [inhibitor, partial curve] |
| NC(=O)NCCCC(NC(=O)c1ccc(C#CC2(O)CCCCC2)cc1)C(=O)O (stereo not given) | inactive: -1.84% |  |
| CCC(O)CNC(=O)NC(=C(Cl)Cl)c1ccc(C)c(F)c1 (stereo not given) |  | inconclusive: 3.16 µM [inhibitor, partial curve] |
| CCNC(=S)Nc1cc2oc3ccccc3c2cc1OC |  | inconclusive: 28.2 µM [inhibitor, single point] |
| CCCCNC(=O)C1(C)CCN1Cc1ccc(C#N)cc1 (stereo not given) | inactive: -2.62% |  |
| O=C(Cc1ccc(Cl)cc1)Nc1cccc(-c2nnc(-c3ccco3)o2)c1 | inactive: -21.5% |  |
| CC(C)(C)[C@H]1COC(=O)[C@H](NC(=O)OCC2c3ccccc3-c3ccccc32)C/C=C\C[C@@H](CC(=O)N(CCO)Cc2ccccc2)C(=O)N1 | inactive: 12.6% |  |
| O=C(Nc1cc([N+](=O)[O-])ccc1N1CCCC1)c1ccccc1 |  | inconclusive: 12.6 µM [inhibitor, single point] |
